Whole data set: some 81,000 sequences, median “one-hybrid fitness for binding parS DNA” near -0.17, cut for the highest 2% near 0.51. The list shows a part of the results.
B1: Caulobacter ParB omega fusion; a variant is named by its letters at X, in order, B8GW30 (parent)
chain: MESVVVGEPGMSEGRRGLGRGLSALLGEVDAAPAQAPGEQLGGSREAPIEILQRNPDQPRRTFREEDLEDLSNSIREKGVLQPILVRPSPDTAGEYQIVAGERAWRAAQRAGLKTVPIMVRELDDLAVLEIGIIENVQRADLNVLEEALSYKVLMEKFERTQENIAQTIGKSXSHVANXMRLLXLPDEVQSYLVSGELTAXHARAIAAAADPVALAKQIIEGGLSVRETEALARKAPNLSAGKSKGGRPPRVKDTDTQALESDLSSVLGLDVSIDHRGSTGTLTITYATLEQLDDLCNRLTRGI

Variants of: B1
Assay: one-hybrid fitness for binding parS DNA (scaled: cognate 1, non-cognate 0); higher = stronger binding
Conditions: with parS DNA site
Summary of the method: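 Fitness is the rescaled log change in variant-to-wild-type read ratio, measured by Illumina sequencing of plasmids before and after bacterial one-hybrid selection. The scale puts cognate at 1 and non-cognate at 0. Selection of Caulobacter ParB libraries, four specificity codons randomised, took place in E. coli USO with a HIS3 reporter, site 19 bp from the promoter, over 48 hours at 37°C on M9-minus-histidine with 0.1 mM IPTG and 5 mM 3-AT.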

| Variant | one-hybrid fitness for binding parS DNA |
| --- | --- |
| EAMT | ≤ 0.2 |
| KSVH | ≤ 0.2 |
| MAYL | ≤ 0.2 |
| RRHM | 0.424 |
| EPMG | ≤ 0.2 |
| SAPH | ≤ 0.2 |
| TLMV | ≤ 0.2 |
| PNHC | ≤ 0.2 |
| RHMF | ≤ 0.2 |
| LTKC | ≤ 0.2 |
| YLDT | ≤ 0.2 |
| QPAR | ≤ 0.2 |
| SEIG | ≤ 0.2 |
| RAVL | ≤ 0.2 |
| NWLS | ≤ 0.2 |
| IDIG | ≤ 0.2 |
| DELT | ≤ 0.2 |
| LYNA | ≤ 0.2 |
| NTDL | ≤ 0.2 |
| DDPG | ≤ 0.2 |
| FKNS | ≤ 0.2 |
| CQSN | ≤ 0.2 |
| SCIT | ≤ 0.2 |
| MTMT | ≤ 0.2 |

| Variant | one-hybrid fitness for binding parS DNA |
| --- | --- |
| CRNV | ≤ 0.2 |
| NAWG | ≤ 0.2 |
| EYWD | ≤ 0.2 |
| GQIL | ≤ 0.2 |
| LTKR | ≤ 0.2 |
| RCHS | 0.953 |
| DKIR | ≤ 0.2 |
| DDSS | ≤ 0.2 |
| RVVS | 1.03 |
| CTGS | ≤ 0.2 |
| TTTT | ≤ 0.2 |
| QLAK | ≤ 0.2 |
| GRMG | ≤ 0.2 |
| GLYT | ≤ 0.2 |
| LRGN | ≤ 0.2 |
| RKFT | 0.771 |
| LINC | ≤ 0.2 |
| GGDY | ≤ 0.2 |
| SGYC | ≤ 0.2 |
| QHFN | ≤ 0.2 |
| GYSP | ≤ 0.2 |
| VSKE | ≤ 0.2 |
| VITC | ≤ 0.2 |
| KDAE | ≤ 0.2 |

| Variant | one-hybrid fitness for binding parS DNA |
| --- | --- |
| MCPV | ≤ 0.2 |
| TVTT | ≤ 0.2 |
| VGPL | ≤ 0.2 |
| RADT | 0.732 |
| YSAD | ≤ 0.2 |
| NCSS | ≤ 0.2 |
| LLST | ≤ 0.2 |
| RSNE | ≤ 0.2 |
| VPKS | ≤ 0.2 |
| AATV | ≤ 0.2 |
| TTQG | ≤ 0.2 |
| PMVA | ≤ 0.2 |
| HNSQ | ≤ 0.2 |
| CNSV | ≤ 0.2 |
| PNSL | ≤ 0.2 |
| PTGA | ≤ 0.2 |
| DNKT | ≤ 0.2 |
| QQEY | ≤ 0.2 |
| TLNR | ≤ 0.2 |
| AAWC | ≤ 0.2 |
| VENW | ≤ 0.2 |
| RTKM | 0.594 |
| GVSW | ≤ 0.2 |
| GRRH | ≤ 0.2 |

| Variant | one-hybrid fitness for binding parS DNA |
| --- | --- |
| VSFP | ≤ 0.2 |
| HHRF | ≤ 0.2 |
| QYNQ | ≤ 0.2 |
| LDLN | ≤ 0.2 |
| DRFL | ≤ 0.2 |
| LPDS | ≤ 0.2 |
| AILF | ≤ 0.2 |
| HMTH | ≤ 0.2 |
| RFCI | ≤ 0.2 |
| RGKD | ≤ 0.2 |
| VKTG | ≤ 0.2 |
| PGDF | ≤ 0.2 |
| QGAV | ≤ 0.2 |
| YNHG | ≤ 0.2 |
| GWGS | ≤ 0.2 |
| VHPM | ≤ 0.2 |
| SPHF | ≤ 0.2 |
| SNPR | ≤ 0.2 |
| QCEY | ≤ 0.2 |
| ALFK | ≤ 0.2 |
| YTDL | ≤ 0.2 |
| LVPK | ≤ 0.2 |
| EYCL | ≤ 0.2 |
| RSPD | ≤ 0.2 |

| Variant | one-hybrid fitness for binding parS DNA |
| --- | --- |
| YIAR | ≤ 0.2 |
| SPPT | ≤ 0.2 |
| NCHG | ≤ 0.2 |
| VQSF | ≤ 0.2 |
| PPCL | ≤ 0.2 |
| PTAD | ≤ 0.2 |
| NNPC | ≤ 0.2 |
| VATS | ≤ 0.2 |
| TTAD | ≤ 0.2 |
| HSNC | ≤ 0.2 |
| GMMF | ≤ 0.2 |
| QLPR | ≤ 0.2 |
| YYSN | ≤ 0.2 |
| VARQ | ≤ 0.2 |
| SDLG | ≤ 0.2 |
| RHFR | ≤ 0.2 |
| NGHF | ≤ 0.2 |
| RLRD | ≤ 0.2 |
| QKVF | ≤ 0.2 |
| GQAR | ≤ 0.2 |
| RVKP | ≤ 0.2 |
| DTSY | ≤ 0.2 |
| AMPL | ≤ 0.2 |
| RARV | ≤ 0.2 |

| Variant | one-hybrid fitness for binding parS DNA |
| --- | --- |
| ENCG | ≤ 0.2 |
| VHTM | ≤ 0.2 |
| YPMG | ≤ 0.2 |
| RLWY | 0.497 |
| HPQD | ≤ 0.2 |
| TTMD | ≤ 0.2 |
| DAHI | ≤ 0.2 |
| AGPK | ≤ 0.2 |
| PKIC | ≤ 0.2 |
| DAVW | ≤ 0.2 |
| GATP | ≤ 0.2 |
| RDAG | ≤ 0.2 |
| QKCH | ≤ 0.2 |
| KPSL | ≤ 0.2 |
| TEHF | ≤ 0.2 |
| RTKV | ≤ 0.2 |
| MTNM | ≤ 0.2 |
| SLLI | ≤ 0.2 |
| EHRS | ≤ 0.2 |
| CVTH | ≤ 0.2 |
| KTAA | ≤ 0.2 |
| VTPA | ≤ 0.2 |
| RHAS | 0.933 |
| TQSI | ≤ 0.2 |

| Variant | one-hybrid fitness for binding parS DNA |
| --- | --- |
| TKYT | ≤ 0.2 |
| YSAF | ≤ 0.2 |
| MAGV | ≤ 0.2 |
| KNYS | ≤ 0.2 |
| QDFW | ≤ 0.2 |
| APLM | ≤ 0.2 |
| TCLG | ≤ 0.2 |
| LHSP | ≤ 0.2 |
| DWWS | ≤ 0.2 |
| ALAL | ≤ 0.2 |
| WWTG | ≤ 0.2 |
| KRTW | ≤ 0.2 |
| ILMY | ≤ 0.2 |
| CRIT | ≤ 0.2 |
| RWKR | ≤ 0.2 |
| TAHR | ≤ 0.2 |
| YLPT | ≤ 0.2 |
| YLIN | ≤ 0.2 |
| PICR | ≤ 0.2 |
| RVHR | ≤ 0.2 |
| IHQG | ≤ 0.2 |
| PAMF | ≤ 0.2 |
| RFMA | 0.504 |
| HIAG | ≤ 0.2 |

| Variant | one-hybrid fitness for binding parS DNA |
| --- | --- |
| NPNG | ≤ 0.2 |
| HFDS | ≤ 0.2 |
| QFTH | ≤ 0.2 |
| GSSG | ≤ 0.2 |
| YFAT | ≤ 0.2 |
| GIKT | ≤ 0.2 |
| VHPA | ≤ 0.2 |
| QWPG | ≤ 0.2 |
| QQYS | ≤ 0.2 |
| HGVD | ≤ 0.2 |
| RCVH | ≤ 0.2 |
| RRHF | ≤ 0.2 |
| PRNT | ≤ 0.2 |
| TCTG | ≤ 0.2 |
| HKEK | 0.24 |
| NMNI | ≤ 0.2 |
| INLW | ≤ 0.2 |
| YTAV | ≤ 0.2 |
| KIVS | ≤ 0.2 |
| FVHS | ≤ 0.2 |
| RALV | ≤ 0.2 |
| AVFW | 0.23 |
| LQAG | ≤ 0.2 |
| DGMS | ≤ 0.2 |

| Variant | one-hybrid fitness for binding parS DNA |
| --- | --- |
| NQRA | ≤ 0.2 |
| APPH | ≤ 0.2 |
| RYMR | ≤ 0.2 |
| WWMC | ≤ 0.2 |
| MNYN | ≤ 0.2 |
| TDEC | ≤ 0.2 |
| QAVE | ≤ 0.2 |
| VPRW | ≤ 0.2 |
| RTQT | 0.925 |
| FSWE | ≤ 0.2 |
| QRGA | ≤ 0.2 |
| IIQC | ≤ 0.2 |
| PGYL | ≤ 0.2 |
| RGQG | 0.727 |
| NYRI | ≤ 0.2 |
| IYAS | ≤ 0.2 |
| NGMS | ≤ 0.2 |
| GPVC | ≤ 0.2 |
| VHHV | ≤ 0.2 |
| QNNV | ≤ 0.2 |
| PQCL | ≤ 0.2 |
| RNDR | ≤ 0.2 |
| KMPN | ≤ 0.2 |
| ALIM | ≤ 0.2 |

| Variant | one-hybrid fitness for binding parS DNA |
| --- | --- |
| VYVV | ≤ 0.2 |
| EPCS | ≤ 0.2 |
| PNRC | ≤ 0.2 |
| TTYP | ≤ 0.2 |
| QPET | ≤ 0.2 |
| DLWS | ≤ 0.2 |
| VRQS | ≤ 0.2 |
| TFTS | ≤ 0.2 |
| SVYA | ≤ 0.2 |
| GLKI | ≤ 0.2 |
| RVMW | 0.228 |
| DFKR | ≤ 0.2 |
| NYVH | ≤ 0.2 |
| RKTE | ≤ 0.2 |
| AKRR | ≤ 0.2 |
| VSLA | ≤ 0.2 |
| LPSY | ≤ 0.2 |
| MNRG | ≤ 0.2 |
| RHYI | ≤ 0.2 |
| SLQP | ≤ 0.2 |
| LQLF | ≤ 0.2 |
| NETG | ≤ 0.2 |
| ELLD | ≤ 0.2 |
| TCKC | ≤ 0.2 |

| Variant | one-hybrid fitness for binding parS DNA |
| --- | --- |
| WHGG | ≤ 0.2 |
| YVHE | ≤ 0.2 |
| VLEG | ≤ 0.2 |
| KLGW | ≤ 0.2 |
| CMVR | ≤ 0.2 |
| TWPN | ≤ 0.2 |
| KCPT | ≤ 0.2 |
| NINI | ≤ 0.2 |
| LHSF | ≤ 0.2 |
| PWAF | ≤ 0.2 |
| TGSV | ≤ 0.2 |
| IIRS | ≤ 0.2 |
| APPE | ≤ 0.2 |
| FYDR | ≤ 0.2 |
| RCEG | 0.915 |
| RHQT | 0.853 |
| IRIV | ≤ 0.2 |
| AAAK | ≤ 0.2 |
| QNKI | ≤ 0.2 |
| RCEM | 0.337 |
| WSAW | ≤ 0.2 |
| ETAT | ≤ 0.2 |
| KLLH | ≤ 0.2 |
| KRMN | ≤ 0.2 |

| Variant | one-hybrid fitness for binding parS DNA |
| --- | --- |
| AQFS | ≤ 0.2 |
| NDVS | ≤ 0.2 |
| LETT | ≤ 0.2 |
| SSPR | ≤ 0.2 |
| PNAG | ≤ 0.2 |
| QIRC | ≤ 0.2 |
| IVPQ | ≤ 0.2 |
| MCYC | ≤ 0.2 |
| ANMS | ≤ 0.2 |
| ACFT | ≤ 0.2 |
| AKLT | ≤ 0.2 |
| ACWD | ≤ 0.2 |
| LTAI | ≤ 0.2 |
| LVWG | ≤ 0.2 |
| KHWK | ≤ 0.2 |
| REQC | ≤ 0.2 |
| HQGT | ≤ 0.2 |
| PKRA | ≤ 0.2 |
| VHHG | ≤ 0.2 |
| EMKE | ≤ 0.2 |
| RHFE | ≤ 0.2 |
| TQEG | ≤ 0.2 |
| KKDV | ≤ 0.2 |
| CIAL | ≤ 0.2 |

| Variant | one-hybrid fitness for binding parS DNA |
| --- | --- |
| TYVP | ≤ 0.2 |
| WHAC | ≤ 0.2 |
| GSVV | ≤ 0.2 |
| QTQC | ≤ 0.2 |
| RSWR | ≤ 0.2 |
| VKWT | ≤ 0.2 |
| QRCS | ≤ 0.2 |
| QQVE | ≤ 0.2 |
| DLRR | ≤ 0.2 |
| ISLF | ≤ 0.2 |
| PHQV | ≤ 0.2 |
| VCHR | ≤ 0.2 |
| ETRC | ≤ 0.2 |
| GSNI | ≤ 0.2 |
| CAFR | ≤ 0.2 |
| QWCL | ≤ 0.2 |
| LTCV | ≤ 0.2 |
| TVMY | ≤ 0.2 |

Source: a collection of fitness landscapes (doi:10.1016/j.celrep.2020.107928)
